{
  "source": "the RNAGym collection of RNA variant scans (doi:10.7554/elife.90254)",
  "parents": {"B1": {"name": "OR4K15 (parent)", "chain": "GUUAACGGUCAUAGGCCAUGGAAACUAGGAGCACCAUUUCGCUGCCAGUGAAGAAAUGAACAAAGAAAAUCUGGGCCAGGCAGGCAUCAAAAGAAAUAGUCUUGCGCUCAACCAGAAAGUCUGUAAUCAUUUUAAGGGUA"}},
  "note": "Read counts are not given, so values of variants with three or more changes are uncertain.",
  "data": [
    {"variants_of": "B1", "assay": "self-cleavage, relative activity (ratio to wild type); higher = more cleavage; in vitro, sequencing; the parent is a self-cleaving ribozyme", "values": [
      {"variant": "GUUAACGGUCAUAGGCCAUGGAAACUAGGAGCACCAUUUCGCUGCCAGAGAAGAAGUGAACAAAGAAAAUCUGGGCCAGGCAGGCAUCAAAAGAAAUAGUCUUGCGCUCAACCAGAAAGUCUGUAAUCACUUUAAGGGUA", "self-cleavage": 1.44},
      {"variant": "GUUAACGGUCAUAGGCCAUGGAAACUAGGAGCACCAUUUCGCUGCCAAUGAAGAAACGAACAAAGAAAAUCUGGGCCAGGCAGGCAUCAAAAGAAAUAGUCCUGCGCUCAACCAGAAAGUCUGUAAUCAUUUUAAGGGUA", "self-cleavage": 1.98},
      {"variant": "GUUAACGGUCAUAGGCCAUGGAAACUAGGAGCACCAUUUCGCUGCCAGAGAAGAAAUGAACAAUGAAAAUCUGGGCCAGGCAGGCAUCAAAAGAAAUAGUCUUGCGCUCGACCAGAAAGUCUGUAAUCAUUUUAAGGGUA", "self-cleavage": 0.11},
      {"variant": "GUUAACGGUCAUAGGCCAUGGAAACUAGGAGCACCAUUUCGCUGCCAAUGAAGGAACGAAGAAAGAAAAUCUGGGCCAGGCAGGCAUCAAAAGAAAUAGUCUUGCGCUCAACCAGAAAGUCUGUAAUCAUUUUAAGGGUA", "self-cleavage": 1.11},
      {"variant": "GUUAACGGUCAUAGGCCAUGGAAACUAGGAGCACCAUUUCGCUGCCAGAGAAGAAAUGAACAAAGAAAAUCUGGGCCAGGCAGGCAUCAAAUGAAACAGUCUUGCGCUCAACCAGAAAGUCUGUAAUCAUUUUAAGGGUA", "self-cleavage": 0.3},
      {"variant": "GUUAACGGUCAUAGGCCAUGGAAACUAGGAGCACCAUUUCGCUGCCAGAGAAGAAAUGAGCAAAGAAAAUCUGGGCCAGGCAGGCAUCAAAAGAGAUAGUCUCGCGCUCAACCAGAAAGCCUGUAAUCAUUUUAAGGGUA", "self-cleavage": 0.33},
      {"variant": "GUUAACGGUCAUAGGCCAUGGAAACUAGGAGCACCAUUUCGCUGCCAAUGAAGAAAUGAACGAAGGAAAUCUGGGCCAGGCUGGCAUCAAAAGAAAUAGUCUUGCGCUCAACCAGAAAGUCUGUAAUCAUUUUAAGGGUA", "self-cleavage": 0.24},
      {"variant": "GUUAACGGUCAUAGGCCAUGGAAACUAGGAGCACCAUUUCGCUGCCAAUGAAGAGGUGAACAAAGAAAAUCUGGGCCAGGCAGGCAUCAAAAGAAAUAGUCUUGCGCUCAACCAGAAAGUCAGUAAUCAUUUUAAGGGUA", "self-cleavage": 0.72},
      {"variant": "GUUAACGGUCAUAGGCCAUGGAAACUAGGAGCACCAUUUCGCUGCCAGAGAGGAAAUGAACAAAGAAAAUCUGGGCCAGGCAGGCAUCAAAAGAAAUAGUCUUGCGCUCAGCCAGAAAGUCUGUAAUCAUUUUAAGGGUA", "self-cleavage": 0.01},
      {"variant": "GUUAACGGUCAUAGGCCAUGGAAACUAGGAGCACCAUUUCGCUGCCAGAGAAGAAAUGAACAAAGAAUAUCUGGGCCAGGCAGGCAUCAAAAGAAGUAGUCUUGCGCUCGACCAGAAAGUCUGUAAUCAUUUUAAGGGUA", "self-cleavage": 0.12},
      {"variant": "GUUAACGGUCAUAGGCCAUGGAAACUAGGAGCACCAUUUCGCUGCCUGUGAAGAAAUGAACAAAGAAAAUCUGGGCCAGGCAGGCAUCAAAAGAAAUAGCCUUGCGCUCAACCAGAAAGUCCGUAAUCAUUUUAAGGGUA", "self-cleavage": 1.87},
      {"variant": "GUUAACGGUCAUAGGCCAUGGAAACUAGGAGCACCAUUUCGCUGCCAAUGAAGAAAUGAACCAAGAAAAUCUGGGCCAGGCAGGCAUCAAAAGAAAUAGUCUUGCGCUCAACCAGAAAGUCCGUAACCAUUUUAAGGGUA", "self-cleavage": 0.79},
      {"variant": "GUUAACGGUCAUAGGCCAUGGAAACUAGGAGCACCAUUUCGCUGCCAGAGAAGAAAUGAACAAAGAGAAUCUGAGCCAGGCAGGCAUCAAAAGAAGUAGUCUUGCCCUCAACCAGAAAGUCUGUAAUCAUCUUGAGGGUA", "self-cleavage": 0.01},
      {"variant": "GUUAACGGUCAUAGGCCAUGGAAACUAGGAGCACCAUUUCGCUGCCAAUGAAGAAAUGAGCAAAGAAAGUCUGGGCCAGGCAGGCAUCAAAAGAAAUAGUCUUGCGCACAACCAGAAAGUCUGCAAUCAUUUUAAGGGUA", "self-cleavage": 0.06},
      {"variant": "GUUAACGGUCAUAGGCCAUGGAAACUAGGAGCACCAUUUCGCUGCCAUUGAAGAAAUGAACAAAGAAAAUCUGGGCCAGGCAGGCUUCAAAAGAAAUAGUCUUGCGCUCAACCAGAAGGUCUGUAAUCAUUUUAAGGGUA", "self-cleavage": 1.86},
      {"variant": "GUUAACGGUCAUAGGCCAUGGAAACUAGGAGCACCAUUUCGCUGCCAAUGAAGAGAUGAACAAAGAAAGUCUGGGCCAGGCAGGCAUCAAAAGAAAUAGUCUUGCGCUCAACCAGAAAGUCUGUAAUCAUUUUAAGGGUA", "self-cleavage": 0.7},
      {"variant": "GUUAACGGUCAUAGGCCAUGGAAACUAGGAGCACCAUUUCGCUGCCAGAGAAGAAGUGAACAAAGAAAAUCUGGGCCAGGCAGGCAUCAAAAGAAAUAGUCUUGCGCUCAGCCAGAAAGUCUGUAAUCAUUUUAAGGGUA", "self-cleavage": 0.05},
      {"variant": "GUUAACGGUCAUAGGCCAUGGAAACUAGGAGCACCAUUUCGCUGCCAGAGAAGAAAUGAACAAAGAAAAUCUGGGCCAGGCAGGCAUCAAAAGAAAUAGUCUUGCGCUCAACCGGAAAGUCUGCAAUCAUUUUAAGGGUA", "self-cleavage": 0.4},
      {"variant": "GUUAACGGUCAUAGGCCAUGGAAACUAGGAGCACCAUUUCGCUGCCUGUGAAGAAAUGAACAAAGAAAAUCUGGGCCAGGCAGGCACCAAAAGAAAUAGUCUUGCGCUCAACCAGAAGGUCUGUAACCAUUUUAAGGGUA", "self-cleavage": 0.11},
      {"variant": "GUUAACGGUCAUAGGCCAUGGAAACUAGGAGCACCAUUUCGCUGCCAAUGAAGAAAUGAACAAAGAAGACCUGGGCCAGGCAGGCAUCAAAAGAAAUAGUCUUGCGCUCAACCAGAAAGUCUGUAAUCAUUUUAAGGGUA", "self-cleavage": 0.94},
      {"variant": "GUUAACGGUCAUAGGCCAUGGAAACUAGGAGCACCAUUUCGCUGCCAGAGAAGAAAUGAACAAAGAAAAUCUGGGCCAGGCAGGCAUCAUAAGAAAUAGUCUUGCGCUCAACCAGAAAGUCUGUAGUCAUUUUAAGGGUA", "self-cleavage": 1.47},
      {"variant": "GUUAACGGUCAUAGGCCAUGGAAACUAGGAGCACCAUUUCGCUGCCAGAGAAGAAAUGGACAAAGAAAAUCUGGGCCAGGCAGGCAUCAAAAGAAAUAGUCUUGCGCUCAUCCAGAAAGUCUGUAAUCAUUUUAAGGGUA", "self-cleavage": 0.07},
      {"variant": "GUUAACGGUCAUAGGCCAUGGAAACUAGGAGCACCAUUUCGCUGCCAAUGAAGAAAUGAACAAAGAAAAUCUGGGCCAGGCAGGCAUCAGAAGAAAUAGCCUUGCGCUCAACCAGAAAGUCUGCAAUCAUUUUAAGGGUA", "self-cleavage": 1.7},
      {"variant": "GUUAACGGUCAUAGGCCAUGGAAACUAGGAGCACCAUUUCGCUGCCAGAGAAGAAAUGAACAAAGAAAAUCUGGGCCAGGCAGGCAUCAAAAGGAGUAGUCUUGCGCUCAACCAGAAAGUCUGUAAUCACUUUAAGGGUA", "self-cleavage": 0.51},
      {"variant": "GUUAACGGUCAUAGGCCAUGGAAACUAGGAGCACCAUUUCGCUGCCAGAGAAGAAAUGAACAAAGAAUAUCUGGGCCAGGCAGGCAUCAAGAGAAAUAGUCUUGCGCUCAACCAGAAAGUCUGUAAUCAUUUUAAGGGUA", "self-cleavage": 1.04},
      {"variant": "GUUAACGGUCAUAGGCCAUGGAAACUAGGAGCACCAUUUCGCUGCCUGUGAAGAAAUGAACAAAGAAAAUCUGGGCCAGGCAGGCAUCAAAAGAAAUAGUCUCGCGCUCAACCAGAAAGUCUGUAAUCAUCUUAAGGGUA", "self-cleavage": 0.2},
      {"variant": "GUUAACGGUCAUAGGCCAUGGAAACUAGGAGCACCAUUUCGCUGCCAGAGAAGAAAUGAACAAAGUAAAUCUGGGCCAGGCAGGCACCAAAAGAAAUAGUCUUGCGCUCAACCAGGAAGUCCGUAAUCAUUUUAAGGGUA", "self-cleavage": 0.04},
      {"variant": "GUUAACGGUCAUAGGCCAUGGAAACUAGGAGCACCAUUUCGCUGCCAGAGAAGAAAUGAACAAAGAAAAUCUGGGCCAGGCAGGCAUCAGAAGAAAAAGUCUUGCGCUCAACCAGAAAGUCUGUAAUCAUCUUAAGGGUA", "self-cleavage": 1.02},
      {"variant": "GUUAACGGUCAUAGGCCAUGGAAACUAGGAGCACCAUUUCGCUGCCUGUGAAGAAAUGAACAAAGAAAAUCUGGGCCAGGCAGGCAUCAAAAGAAAUAGCCUUGCGCUCAGCCAGAAAGUCUGUAAUCAUUUUAAGGGUA", "self-cleavage": 0.01},
      {"variant": "GUUAACGGUCAUAGGCCAUGGAAACUAGGAGCACCAUUUCGCUGCCAGAGAAGGAAUGAACAAAGAAAAUCUGGGCCAGGCAGGCAUCAAAAGAAAUAGUUUUGCGCUCAACCAGAAAGUCUGUAAUCAUUUUAAGGGUA", "self-cleavage": 0.03},
      {"variant": "GUUAACGGUCAUAGGCCAUGGAAACUAGGAGCACCAUUUCGCUGCCAGAGGAGAAAUGAACAAAGUAAAUCUGGGCCAGGCAGGCAUCAAAAGAAAUAGUCUUGCGCUCAACCAGAAAGUCUGUAAUCAUUUUAAGGGUA", "self-cleavage": 0.48},
      {"variant": "GUUAACGGUCAUAGGCCAUGGAAACUAGGAGCACCAUUUCGCUGCCAGAGGAGAAAUGAACAAAGAAAAUCCGGGCCAGGCAGGCAUCAAAAGAGAUAGUCUUGCGCUCAACCAGAAAGUCUGUAAUCAUUUUAAGGGUA", "self-cleavage": 0.66},
      {"variant": "GUUAACGGUCAUAGGCCAUGGAAACUAGGAGCACCAUUUCGCUGCCAGAGUAGAAAUGAACAAAGAAAAUCUGGGCCAGGCAGGCAUCAAUAGAAAUAGUCUUGCGCUCAACCAGAAAGUCUGUAAUCAUUUUAAGGGUA", "self-cleavage": 2.03},
      {"variant": "GUUAACGGUCAUAGGCCAUGGAAACUAGGAGCACCAUUUCGCUGCCAGAGAAGGAAUGAACAAAGAAAAUCUGAGCCAGGCAGGCAUCAAAAGAAAUAGUCUUGCGCUCAACCAGAAAGUCUGUAAUCAUUUUAAGGGUA", "self-cleavage": 0.19},
      {"variant": "GUUAACGGUCAUAGGCCAUGGAAACUAGGAGCACCAUUUCGCUGCCAGAGAGGAAAUGAACAAAGAAAAUCUGGGCCAGGCAGGCAUCAAAAGAAAUAGUCUUGCGCUUAACCAGAAAGUCUGUAAUCAUUUUAAGGGUA", "self-cleavage": 0.51},
      {"variant": "GUUAACGGUCAUAGGCCAUGGAAACUAGGAGCACCAUUUCGCUGCCAGAGUAGAAAUGAACAAAGAAAAUCUGGGCCAGGCAGGCAUCGAAAGAAAUAGCCUUGCGCUCAACCAGAAAGUCUGUAAUCAUUUUAAGGGUA", "self-cleavage": 1.76},
      {"variant": "GUUAACGGUCAUAGGCCAUGGAAACUAGGAGCACCAUUUCGCUGCCAGAGAAGAAAUGAACAAUGAAAAUCUGGGCCAGGCAGGCAUCAAAAGAAAUAGCCUUGCGCUCAACCGGAAAGUCUGUAAUCAUUUUAAGGGUA", "self-cleavage": 0.71},
      {"variant": "GUUAACGGUCAUAGGCCAUGGAAACUAGGAGCACCAUUUCGCUGCCAGAGAAGAAAUGACCAAAGAAAAUCUGGGCCAGGCAGGCAUCAAAAGAAAUGGUCUUGCGCUCGACCAGAAAGUCUGUAACCACUUUAAGGGUA", "self-cleavage": 0.02},
      {"variant": "GUUAACGGUCAUAGGCCAUGGAAACUAGGAGCACCAUUUCGCUGCCAGAGAAGAAAUGCACAAAGGAAAUCUGGGCCAGGCAGGCAUCAAGAGAAAUAGUCUUGCGCUCAACCAGAAAGUCCGUAAUCAUUUUAAGGGUA", "self-cleavage": 1.13},
      {"variant": "GUUAACGGUCAUAGGCCAUGGAAACUAGGAGCACCAUUUCGCUGCCAGAGAAGAGAUGAACAAAGAAAAUCUGGGCCAGGCAGGCAUCAAAAGAAGUAGUCUUGCGCUCAACCAGAAAGUCUGUAAUCAUUUUAAGGGUA", "self-cleavage": 1.28},
      {"variant": "GUUAACGGUCAUAGGCCAUGGAAACUAGGAGCACCAUUUCGCUGCCAGAGAGGAAAUGAGCAAAGAAAAUCUGGGCCAGGCAGGCAUCAAAAGAAAUAGACUUGCGCUCAACCAGAAAGUCUGUAAUCAUUUUAAGGGUA", "self-cleavage": 0.41}
    ]}
  ]
}
